Consider 195 variants from a collection of fitness landscapes (doi:10.1126/science.1257360).

Sequences and labels used below:
B1: PhoQ; a variant is named by its letters at X, in order, P23837 (parent)
chain: MKKLLRLFFPLSLRVRFLLATAAVVLVLSLAYGMVALIGYSVSFDKTTFRLLRGESNLFYTLAKWENNKLHVELPENIDKQSPTMTLIYDENGQLLWAQRDVPWLMKMIQPDWLKSNGFHEIEADVNDTSLLLSGDHSIQQQLQEVREDDDDAEMTHSVAVNVYPATSRMPKLTIVVVDTIPVELKSSYMVWSWFIYVLSANLLLVIPLLWVAAWWSLRPIEALAKEVRELEEHNRELLNPATTRELTSLVRNLNRLLKSERERYDKYRTTLTDLTHSLKTPLXXLQXXLRSLRSEKMSVSDAEPVMLEQISRISQQIGYYLHRASMRGGTLLSRELHPVAPLLDNLTSALNKVYQRKGVNISLDISPEISFVGEQNDFVEVMGNVLDNACKYCLEFVEISARQTDEHLYIVVEDDGPGIPLSKREVIFDRGQRVDTLRPGQGVGLAVAREITEQYEGKIVAGESMLGGARMEVIFGRQHSAPKDE

The list shows a part of the results.

The assay covers variants of B1. The experiment in a line: enrichment ratio after two sorts for PhoP signalling (ratio (wild type AVST 3.29)); higher = more functional. The settings on record: with PhoP (E. coli).
Consider SLMV, for which the enrichment ratio came out at 7.89. With MIQL, the enrichment ratio was at most 0.25.

With HFVR, the enrichment ratio was at most 0.25. In the case of YDQR, the enrichment ratio was at most 0.25. The figure for QGTC is 9.68.

For PEWE, the enrichment ratio is at most 0.25.

As for LFEM, the enrichment ratio was at most 0.25.

ECFA: the enrichment ratio is at most 0.25. In the case of RSHN, the enrichment ratio is at most 0.25. The figure for MYIL is at most 0.25; for SMRF it is at most 0.25.

Take FFWA: the enrichment ratio is at most 0.25. The figure for YVVQ is at most 0.25; for QQGK it is at most 0.25; for TANW it is at most 0.25. The figure for YCAT is 0.489; for NHIP it is at most 0.25; for DSDW it is at most 0.25.

Turning to PEDS, the enrichment ratio is at most 0.25.

On to GDGL, for which the enrichment ratio is at most 0.25. In the case of YIPY, the enrichment ratio is at most 0.25. The figure for FWAW is at most 0.25. The figure for QVMC is at most 0.25; for MPSR it is at most 0.25.

As for INMC, the enrichment ratio was at most 0.25. GQDG: the enrichment ratio is at most 0.25. The figure for MMRG is at most 0.25; for FHST it is at most 0.25; for LNTC it is at most 0.25.

For HRTQ, the enrichment ratio was at most 0.25. The figure for TTAD is at most 0.25. The figure for SDGH is at most 0.25; for VQKK it is at most 0.25. The figure for YHPY is at most 0.25; for EPLY it is at most 0.25. Turning to HGTW, the enrichment ratio was at most 0.25.

In the case of DGQQ, the enrichment ratio was at most 0.25.

As to LAKR, the enrichment ratio was at most 0.25. With NATH, the enrichment ratio is at most 0.25. The figure for EHKS is at most 0.25; for FPHN it is at most 0.25. The figure for TYRL is 0.913; for DLAF it is at most 0.25; for TVEL it is 3.54. The figure for YIHF is at most 0.25; for HPDS it is at most 0.25. QRHC: the enrichment ratio was at most 0.25. The figure for YIHH is at most 0.25. With WWVV, the enrichment ratio is at most 0.25. The figure for FPRT is 1.3. The figure for RACD is at most 0.25; for MCPR it is at most 0.25; for DPFA it is at most 0.25. The figure for MQEE is at most 0.25; for NSEH it is at most 0.25; for PVVK it is 3.47. In the case of NRYV, the enrichment ratio is at most 0.25. Regarding PYPW, the enrichment ratio is at most 0.25.

Turning to LRRF, the enrichment ratio was at most 0.25.

In the case of LAEN, the enrichment ratio is at most 0.25. Consider FMLI, for which the enrichment ratio is at most 0.25. The figure for YDPD is at most 0.25.

For the variant GRDV, the enrichment ratio is at most 0.25. As for ANRC, the enrichment ratio is at most 0.25. The figure for AYFW is at most 0.25.

QRWT: the enrichment ratio was at most 0.25. The figure for ATTM is 16.6; for SNDQ it is at most 0.25; for EEYY it is at most 0.25. The figure for TMIQ is at most 0.25; for ALFP it is at most 0.25.

Take MQMY: the enrichment ratio worked out at 3.17. The figure for SFLF is 1.1. The figure for PKLF is at most 0.25; for RWYG it is at most 0.25; for IQYH it is at most 0.25. The figure for LIID is at most 0.25; for GQHP it is at most 0.25. On to RYAR, for which the enrichment ratio was at most 0.25.

As to LRCI, the enrichment ratio is at most 0.25. For the variant HKSS, the enrichment ratio is at most 0.25. The figure for QTYC is 0.887.

On to AVLE, for which the enrichment ratio was at most 0.25. The figure for PFKR is at most 0.25; for KYPE it is at most 0.25; for QQAI it is at most 0.25. The figure for YYEM is at most 0.25; for HTPT it is at most 0.25. The figure for YNMC is at most 0.25; for HLCK it is at most 0.25. On to ILCE, for which the enrichment ratio is at most 0.25. The figure for VDAG is at most 0.25; for DCFA it is at most 0.25; for HYQM it is at most 0.25. The figure for FNCY is at most 0.25; for WMPD it is at most 0.25. The figure for TTFE is at most 0.25; for TSNM it is 3.95; for VVYT it is at most 0.25. In the case of VNNM, the enrichment ratio is at most 0.25. The figure for LSFD is at most 0.25.

For the variant HEPW, the enrichment ratio was at most 0.25. As for KHFI, the enrichment ratio was at most 0.25. For the variant FYRK, the enrichment ratio is at most 0.25.

In the case of QDTD, the enrichment ratio is at most 0.25. With IFLR, the enrichment ratio is at most 0.25. The figure for LTHW is at most 0.25. The figure for GCWR is at most 0.25; for AAFV it is at most 0.25.

On to DMQF, for which the enrichment ratio was at most 0.25. The figure for VLKG is at most 0.25. The figure for GCCR is at most 0.25. Consider YSEQ, for which the enrichment ratio is at most 0.25. The figure for FRDL is at most 0.25; for HSNW it is at most 0.25; for AWIW it is at most 0.25.

Consider MNHR, for which the enrichment ratio is at most 0.25.

On to AMND, for which the enrichment ratio is at most 0.25. With RQDI, the enrichment ratio is at most 0.25. The figure for TTMD is 0.883; for TTWS it is 11.9. The figure for LQGW is at most 0.25. The figure for YWWR is at most 0.25; for KKQL it is at most 0.25; for GLGP it is at most 0.25. In the case of WSWR, the enrichment ratio was at most 0.25. For the variant KKCF, the enrichment ratio was at most 0.25. Turning to IIFT, the enrichment ratio is at most 0.25. The figure for RDPD is at most 0.25; for KDWA it is at most 0.25.

Turning to LTPQ, the enrichment ratio is at most 0.25. The figure for WEWW is at most 0.25; for KFAK it is at most 0.25. The figure for HFGS is at most 0.25; for DYLD it is at most 0.25. On to KIAL, for which the enrichment ratio was at most 0.25. The figure for EVYM is at most 0.25. The figure for YFKA is at most 0.25; for DIAW it is at most 0.25; for HHKV it is at most 0.25. The figure for RTAD is at most 0.25. For IQIP, the enrichment ratio is at most 0.25. The figure for NIWT is at most 0.25.

With HGSP, the enrichment ratio is at most 0.25.

IFLE: the enrichment ratio is at most 0.25.

With TCVP, the enrichment ratio was at most 0.25. The figure for WARR is at most 0.25; for HGIR it is at most 0.25.

On to HATP, for which the enrichment ratio is at most 0.25. In the case of DWQC, the enrichment ratio was at most 0.25. Turning to QGRQ, the enrichment ratio is at most 0.25. The figure for VLMR is at most 0.25; for TWVI it is at most 0.25. The figure for YLLF is at most 0.25. The figure for KLAK is at most 0.25. On to IMWL, for which the enrichment ratio is at most 0.25. Take VRSR: the enrichment ratio was at most 0.25. The figure for GWSR is at most 0.25; for FFYS it is at most 0.25; for DASR it is at most 0.25. The figure for LHQK is at most 0.25; for FPCN it is at most 0.25; for CIIL it is at most 0.25. The figure for GFGT is at most 0.25; for FVIP it is at most 0.25. Take DLWE: the enrichment ratio was at most 0.25. The figure for AMIC is at most 0.25; for FYMR it is at most 0.25. The figure for TLVS is at most 0.25. Turning to AHNC, the enrichment ratio was at most 0.25.

Take YACS: the enrichment ratio amounted to 0.363. As for QYCM, the enrichment ratio was at most 0.25. The figure for KSSC is at most 0.25; for PVKS it is at most 0.25; for YKTS it is at most 0.25.

As to MTEI, the enrichment ratio was at most 0.25. The figure for GEME is at most 0.25. For the variant MRCP, the enrichment ratio was at most 0.25.

On to VYKH, for which the enrichment ratio is at most 0.25. The figure for KKEP is at most 0.25; for NIYD it is at most 0.25; for KIGK it is at most 0.25.

Take PVQR: the enrichment ratio is at most 0.25. The figure for WNSG is at most 0.25; for VSKA it is 0.389. The figure for SQLW is 2.64. On to GSVN, for which the enrichment ratio was at most 0.25. The figure for KHNE is at most 0.25; for MEKC it is at most 0.25.

In the case of YAVW, the enrichment ratio is at most 0.25. The figure for SQCE is 24.1; for STDF it is at most 0.25. On to RMTG, for which the enrichment ratio is at most 0.25.

Regarding YAFT, the enrichment ratio was at most 0.25. The figure for MQWL is at most 0.25.
